Data taken from the supplement of paper PMC12217912.
Some of the results follow. Sequences were assembled here from the parent chain. Values near 0.05 are background.

B1: TEV protease; numbered along this chain (parent)
chain: MGESLFKGPRDYNPISSSICHLTNESDGHTTSLYGIGFGPFIITNKHLFRRNNGTLVVQSLHGVFKVKDTTTLQQHLVDGRDMIIIRMPKDFPPFPQKLKFREPQREERICLVTTNFQTKSMSSMVSDTSCTFPSGDGIFWKHWIQTKDGQCGSPLVSTRDGFIVGIHSASNFTNTNNYFTSVPKNFMELLTNQEAQQWVSGWRLNADSVLWGGHKVFMVKPEEPFQPVKEATQL

Variants of: B1
Test: raw area under fraction-flipped curve 0-4 h after induction (AUC4h, not background-subtracted), DNA-recorder readout of cleavage of the substrate (dimensionless); higher = more cleavage of the substrate by the protease variant
Settings: temperature: 34 °C; time window: 0-4 h after rhamnose induction
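Note: Bxb1 expression induced with 0.2% (w/v) L-rhamnose at OD600 near 0.5, cultures sampled hourly, flipped fraction per protease–substrate barcode pair counted by paired-end Illumina sequencing.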

Row | Variant | area with substrate ENLYCQS | area with substrate ENLYDQS | area with substrate ENLYEQS | area with substrate ENLYGQS | area with substrate ENLYHQS | area with substrate ENLYIQS | area with substrate ENLYKQS | area with substrate ENLYLQS | area with substrate ENLYMQS | area with substrate ENLYNQS | area with substrate ENLYPQS | area with substrate ENLYQQS | area with substrate ENLYRQS | area with substrate ENLYSQS | area with substrate ENLYTQS | area with substrate ENLYVQS | area with substrate ENLYWQS | area with substrate ENLYYQS
1 | S18C | 0.085 | 0.0637 | 0.0545 | 0.0625 | 0.0605 | 0.126 | 0.0557 | 0.107 | 0.088 | 0.0618 | 0.0781 | 0.0574 | 0.0626 | 0.0776 | 0.0529 | 0.122 | 0.0694 | 0.0777
2 | P104L | 0.0303 | 0.0608 | 0.0554 | 0.0425 | 0.0625 | 0.0579 | 0.0484 | – | 0.0483 | 0.0574 | – | 0.0527 | 0.0443 | – | – | 0.0608 | 0.0581 | 0.0426
3 | V64T | 0.0738 | – | 0.0692 | 0.0605 | 0.0655 | – | 0.0559 | – | – | – | – | – | 0.0808 | 0.0658 | – | – | 0.0905 | 0.0704
4 | D128M | 0.151 | 0.0666 | 0.0965 | 0.0742 | 0.0547 | 0.163 | 0.0693 | 0.108 | – | 0.0798 | 0.086 | 0.0669 | 0.0651 | 0.11 | 0.0992 | 0.178 | 0.101 | 0.0632
5 | G136L | 0.0801 | 0.0544 | 0.0623 | 0.0694 | 0.0697 | 0.105 | 0.0635 | 0.125 | 0.087 | 0.0729 | 0.061 | – | 0.0635 | 0.117 | 0.0687 | 0.0685 | 0.0698 | –
6 | F117N | 0.088 | 0.0502 | 0.0572 | 0.068 | 0.0587 | 0.119 | – | – | – | 0.0745 | 0.0803 | – | 0.0632 | 0.0827 | – | 0.112 | 0.0734 | 0.066
7 | V200P | 0.0674 | – | – | – | 0.0465 | – | 0.0364 | 0.0496 | – | 0.061 | 0.0749 | 0.0621 | – | 0.0827 | 0.053 | – | 0.0656 | 0.0604
8 | T31E | 0.0981 | 0.0685 | 0.0647 | 0.0661 | 0.0824 | 0.113 | 0.0455 | 0.0709 | 0.0834 | 0.0552 | 0.0729 | 0.0621 | 0.0614 | 0.0735 | 0.0574 | 0.12 | 0.0659 | 0.0631
9 | K216F | 0.0849 | – | 0.0553 | 0.0592 | 0.0642 | 0.0831 | 0.0868 | 0.0651 | 0.0685 | 0.082 | 0.0512 | 0.062 | – | – | 0.0633 | 0.131 | – | 0.0575
10 | T72R | 0.0572 | 0.063 | 0.0685 | 0.0617 | 0.0632 | – | 0.0487 | – | 0.0827 | – | 0.0665 | 0.0657 | 0.0658 | – | – | 0.137 | – | 0.0537
11 | P40I | 0.0855 | 0.06 | 0.097 | 0.0722 | 0.0643 | 0.0967 | – | – | 0.0769 | 0.0545 | – | 0.0615 | 0.0438 | – | – | 0.102 | 0.0751 | 0.0637
12 | L112N | 0.0757 | 0.066 | 0.0617 | 0.0626 | 0.0627 | 0.0677 | – | 0.0635 | 0.0524 | 0.0602 | 0.0758 | 0.0564 | 0.0589 | 0.0622 | 0.0571 | 0.077 | 0.0659 | 0.0443
